# Values joined by “and” are separate entries in the source; they are usually repeats but may differ in a detail not shown here. Equal values may be shown once. Out of some 420,000 compounds screened, about 50,000 (12%) were called active. Inconclusive means that the source gave no clear call. Such entries were picked first, then a sample of the others. Calls come from the whole dose curve; as a rule, active = well fitted inhibition curve with a large enough effect; inconclusive = small, poorly fitted or top-dose-only effect; inactive = flat fitted curve, though single readings scatter. No potency is given beside an inconclusive call; the fits are too rough.
# Experiment: qHTS for Inhibitors of human tyrosyl-DNA phosphodiesterase 1 (TDP1): qHTS in cells in presence of CPT; note: nearly all actives have a fitted effect of over 55% in size
# Conditions: chicken DT40 Tdp1-/-;hTDP1 cells + 20 nM CPT, ATP luminescence, 48 h; series mostly up to 46.2 µM
# How it was run: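 Chicken DT40 Tdp1-/- cells stably complemented with human TDP1 were seeded at 400 cells/well in medium containing 20 nM camptothecin, exposed to pin-transferred compounds, and grown at 37 °C for at least 48 hr. Viability was read as ATP luminescence.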
# Potency is the fitted concentration of half-maximal effect; tags give direction and shape of the fitted curve.
row,SMILES,Potency
1,CCOC(=O)N1CCN(C(=O)c2ccc(N(C)S(=O)(=O)c3ccc(C)cc3)cc2)CC1,"inconclusive [inhibitor, single point]"
2,O=C(COc1cccc2c1CCN(Cc1ccccc1F)C2=O)N1CCCCC1,"inconclusive [inhibitor, partial curve]"
3,O=C(c1ccc(N2CCCC2=O)cc1)N1CCN(c2cccc(C(F)(F)F)c2)CC1,active: 16.4 µM
4,COc1cc2[nH]c(=O)n(CCCCCC(=O)N3CCN(c4ccccc4)CC3)c(=O)c2cc1OC,active: 20.6 µM
5,Cc1ccc2c(c1)COc1c3ccc(C(=O)N[C@@H](CO)C(C)C)cc3nn1-2,active: 23.1 µM
6,CC(=O)Nc1ccc(S(=O)(=O)Nc2c(C)n(C)n(-c3ccccc3)c2=O)cc1,inactive
7,O=C(NCc1ccncc1)c1ccc(S(=O)(=O)Nc2ccccc2)cc1,"inconclusive [inhibitor, partial curve, poor fit]"
8,COc1ccc(N2CC(NC(=O)N3CCc4ccccc43)CC2=O)cc1OC (stereo not given),inactive
9,O=C(CN1C(=O)NC2(CCCCC2)C1=O)NCCCSc1ccccc1,inactive
10,CC(C)CC(=O)NC(=S)Nc1ccc(S(=O)(=O)N2CCCC2)cc1,"inconclusive [inhibitor, single point]"
11,O=C(Nc1cnn(C23CC4CC(CC(C4)C2)C3)c1)c1cnn2c(C(F)(F)F)cc(-c3ccco3)nc12,active: 18.4 µM
12,O=c1c2cccnc2[nH]c(=S)n1CCCN1CCN(c2ccccc2F)CC1,"inconclusive [inhibitor, partial curve]"
13,Cc1nc(CSc2nnc(Nc3cccc(C)c3C)s2)cs1,inactive
14,CCc1nc2ccc(C(=O)N(C)C(C)C)cn2c1N(CCC(C)C)CCN(C)C,inactive
15,CCCCCCCCNC(C)C(O)c1ccc(SC(C)C)cc1 (stereo not given),active: 9.2 µM and active: 18.4 µM
16,COc1ccc(-c2ccc3c(c2)c(Sc2ccccc2)c(-c2ccccc2)n3C)cc1,"inconclusive [inhibitor, partial curve, poor fit]"
17,COCCn1c(=O)sc2ccccc2c1=O,active: 20.6 µM
18,COc1ccc(-c2csc3ncnc(N4CCN(c5ccccc5OC)CC4)c23)cc1,"inconclusive [inhibitor, single point]"
19,CCOC(=O)C1=C(C)NC2=C(C(=O)CC(C)(C)C2)C1c1cccc(C)n1 (stereo not given),inactive
20,CCOC(=O)c1[nH]c2ccccc2c1NC(=O)c1ccc(S(=O)(=O)N2CCOCC2)cc1,"inconclusive [inhibitor, single point]"

# From PubChem BioAssay AID686979 (National Center for Advancing Translational Sciences (NCATS), 2013)
